From PubChem BioAssay AID463173 (ICCB-Longwood Screening Facility, Harvard Medical School, 2010) come the findings set out here.

The whole screen tested about 52,000 compounds, of which about 1,700 (3.3%) were called active. No stated cut-off is given here; in the data, active means survival mostly below about 52% (no sharp cut-off); inactive means mostly above about 56%. The list shows a part of the results.

For the experiment, the system named is Wild type. Nature of the experiment: S. aureus survival, RN4220 and DeltatarO strains – OD600, teichoic acid synthesis inhibitors, primary screen (AID 463173). As to conditions: S. aureus RN4220 wild type/DeltatarO growth, OD600, 18 h, active compounds read low, screened at 18.75 µg/mL (by protocol).
For the compound `CC(=O)Nc1nonc1-c1nnc(SCc2ccc(Cl)cc2)n1C`, the survival was inactive: 76%.
`CCOC(=O)c1c(NC(=O)c2cc(=O)c3c(C)cc(C)cc3o2)sc(C(C)=O)c1C`: the survival was inactive: 88%.
Consider `CCc1ccc(-n2c(-c3ccccc3)c(C)n3c4c(=O)n(C)c(=O)n(C)c4nc23)cc1`, for which the survival is inactive: 126%.
Regarding `Oc1ccccc1C1=Nc2ccccc2N=C(c2ccco2)C1`, the survival was inactive: 111%.
Next, `COc1cccc(N2C(=O)N(CC(=O)NCc3cccc(OC)c3OC)c3ccccc3S2(=O)=O)c1`: inactive: 78%; `Cc1cc(=O)c2cc(C(=O)Nc3ccccc3)ccc2[nH]1`: inactive: 82%.
On to `Cc1ccc2cccc(NC(=O)c3ccc(-c4ccc(Br)cc4)o3)c2n1`, for which the survival was inactive: 68%.
For `COc1cccc(C2C(C(=O)Nc3ccccc3OC)=C(C)Nc3nc4ccccc4n32)c1` (stereo not drawn), the survival is inactive: 93%.
Regarding `CCc1ccccc1Nc1ncnc2c1nc1n2CCCC1`, the survival was inactive: 71%.
On to `NS(=O)(=O)c1ccc(CCNC(=O)c2nc(SCc3ccccc3F)ncc2Cl)cc1`, for which the survival is inactive: 83%.
In the case of `COc1ccc2oc(=O)c(C(=O)NCCc3c(C)[nH]c4ccc(Br)cc34)cc2c1`, the survival is inactive: 70%.
For `O=C(CSc1nnc(CNC(=O)c2ccccc2)n1-c1cccc(Cl)c1)Nc1ccccc1F` the value was inactive: 98%.
Consider `OC(CC#CCN1CCOCC1)(c1ccccc1)c1ccccc1`, for which the survival is inactive: 105%.
As to `COc1ccccc1N1CCN(C(=O)CCS(=O)(=O)c2cc(Br)cc3c2N(C(=O)C2CC2)CC3)CC1`, the survival is inactive: 84%.
With `CCOC(=O)c1c(C)oc2nc(C)nc(N3CCN(c4ccccc4)CC3)c12`, the survival was inactive: 68%.
Turning to `O=C(Nc1ccc(F)cc1)c1cccn1-c1nnc(N2CCCCC2)s1`, the survival is inactive: 80%.
With `Cc1ccc(-c2csc(/C(C#N)=C/c3ccccc3Cl)n2)cc1`, the survival was inactive: 23%.
For `CCCNC(=O)c1cnc2sc(N3CCCCC3)nn2c1=O` the value was inactive: 73%; for `NNC(=O)C(NC(=O)c1ccccc1)c1n[nH]c(=O)c2ccccc12` (stereo not drawn), inactive: 106%.
For `Cc1cn2c(=O)cc(COc3ccccc3NC(=O)c3ccccc3C)nc2s1`, the survival was inactive: 82%.
For `O=C1/C(=C\c2cccnc2)SC(=S)N1C1CCS(=O)(=O)C1` (stereo not drawn) the value was inactive: 105%; for `O=C(NCc1cccc(F)c1)C1CCN(C(=O)c2sccc2-n2cccc2)CC1`, inactive: 126%; for `O=C(Nc1cc(NC(=O)c2ccccc2Cl)ccc1Cl)c1ccccc1`, inactive: 71%.
As for `CCOc1ccccc1CNC(=O)c1ccc2nc(Cc3ccc(OC)cc3)oc2c1`, the survival is inactive: 72%.
With `CCOCCCNC(=O)NC(CCC(C)C)c1c(-n2cccc2)sc2c1CCN(C)C2` (stereo not drawn), the survival was inactive: 128%.
Turning to `CCc1ccc(NC(=O)CSc2cn(CC(=O)N3CCCC3)c3ccccc23)cc1`, the survival was inactive: 105%.
For `CCOc1ccccc1NC(=O)N1CCCC(c2nc3c(nnn3Cc3ccc(C)cc3)c(=O)[nH]2)C1` (stereo not drawn) the value was inactive: 102%; for `COc1ccc(N2CCN(C(=O)CCNS(=O)(=O)c3ccc4c(c3)CCN4C(=O)C3CC3)CC2)cc1`, inactive: 84%.
For `COc1ccc(CNC(=O)c2ccc(Cn3c(=O)c4cccn4c4cccnc43)cc2)cc1OC` the value was inactive: 91%.
Take `O=C(c1ccc(F)cc1)C1CCN(S(=O)(=O)c2ccc(F)cc2)CC1`: the survival is inactive: 102%.
For `O=c1c2sc3ccccc3c2n(Cc2cccc(C(F)(F)F)c2)c(=O)n1Cc1ccco1` the value was inactive: 81%.
For the compound `Cc1ccc(OCC(=O)Nc2ccc(S(=O)(=O)Nc3ncccn3)cc2)c(C(C)(C)C)c1`, the survival was inactive: 64%.
For the compound `CN1CCN(CCCNC(=O)c2cnn(-c3ccccc3)c2-n2cccc2)CC1`, the survival was inactive: 81%.
As for `CC(C)(C)C(=O)CSc1nc2ccsc2c(=O)n1Cc1ccccc1F`, the survival was inactive: 134%.
For `Cc1ccc(C)c(-c2nc(Cn3c(=O)cc(-c4ccccc4)c4c(C)nn(C)c43)c(C)o2)c1` the value was inactive: 134%; for `O=C(NCCN1CCOCC1)c1c(Cl)cccc1Cl`, inactive: 106%; for `COc1cccc(-c2nc(SCc3cc(=O)c4ccc(C)c(C)c4[nH]3)n[nH]2)c1`, inactive: 97%.
Regarding `CCOc1ccc(NC(=O)Cn2cc(C(=O)c3ccc(CC)cc3)c(=O)c3cc(C)ccc32)cc1`, the survival was inactive: 78%.
Next, `CCOc1cccc(C(=O)Nc2ccc(S(=O)(=O)N(Cc3ccccc3)c3ccccc3)cc2)c1`: inactive: 88%; `CCCN(C(=O)c1nn(-c2ccc(OC)cc2)c(=O)c2c1c1ccccc1n2C)c1ccc(CC)cc1`: inactive: 95%; `COc1ccc2nc(SCC(=O)N3CCCCC3)c(C#N)cc2c1`: inactive: 100%.
Take `Cc1ccc(Cc2c(C)nc3nc(SCC(=O)NC(C)c4ccccc4)nn3c2C)cc1` (stereo not drawn): the survival is inactive: 66%.
With `CCOC(=O)/C(C#N)=C\c1cn(C)c2ccccc12`, the survival is inactive: 101%.
In the case of `COc1ccc(NC(=O)c2csc3c2CCCCC3)cc1`, the survival was inactive: 72%.
For `Cc1ccc(Cc2nc3ccccc3nc2SCC(=O)NCCC(C)C)cc1` the value was inactive: 121%.
Take `COc1ccc(CCN(Cc2cc3cc4c(cc3[nH]c2=O)OCO4)C(=O)c2ccncc2)cc1OC`: the survival was inactive: 113%.
`CC(NC(=O)Nc1c[nH]c2ccccc2c1=O)c1ccncc1` (stereo not drawn): the survival was inactive: 106%.
As to `O=C(CSc1nc2c([nH]c3ccccc32)c(=O)n1-c1ccc(F)cc1)NCc1ccccc1`, the survival was inactive: 74%.
Take `CCOCCCn1c(SCC(=O)Nc2ccc(C(C)C)cc2)nc2c(sc3ccccc32)c1=O`: the survival was inactive: 120%.
Take `COc1ccc(S(=O)(=O)c2nnn(-c3cc(Cl)c(OC)cc3OC)c2C)cc1`: the survival was inactive: 90%.
For the compound `COc1ccc(C(=O)NCC(c2cccnc2)N2CCc3ccccc3C2)cc1OC` (stereo not drawn), the survival is inactive: 93%.
Regarding `COC(=O)c1cc2occc2n1Cc1nc(-c2ccccc2F)oc1C`, the survival is inactive: 79%.
In the case of `Cn1c(=O)c2c(-c3ccccc3)n3c4ccccc4nc(-c4ccccc4)c3c2n(C)c1=O`, the survival is inactive: 77%.
On to `CCn1c(=O)c2cc(C(=O)Nc3cc(F)ccc3F)sc2c2ccccc21`, for which the survival is inactive: 101%.
As to `O=C(Nc1cccc(-c2nc3cc(Cl)ccc3o2)c1)c1cc([N+](=O)[O-])ccc1N1CCOCC1`, the survival was inactive: 76%.
`CC(C)C(Nc1ccc(C(F)(F)F)cn1)C(=O)O` (stereo not drawn): the survival was inactive: 108%.
Next, `Cc1ccc(CN2CCC(CNc3ncnc4onc(-c5ccc(F)cc5)c34)CC2)cc1`: active: -4%; `CCN1/C(=C2/SC(=S)N(C)C2=O)Sc2ccc(S(=O)(=O)C(F)(F)F)cc21`: inactive: 112%.
Take `COc1ccc(CN2C(=O)c3oc4ccccc4c(=O)c3C2c2ccc(O)cc2)cc1` (stereo not drawn): the survival is inactive: 74%.
Turning to `COc1ccc(OC)c(NC(=O)CN(C)S(=O)(=O)c2ccc(C(=O)N3CCOCC3)s2)c1`, the survival is inactive: 72%.
For the compound `O=C(Cn1cnc2c(oc3ccccc32)c1=O)Nc1ccccc1C(F)(F)F`, the survival was inactive: 87%.
Take `COc1ccc(C)cc1NC(=O)N(Cc1ccc(C)o1)C1CCN(C(C)=O)CC1`: the survival was active: 0%.
For the compound `Cc1ccc(-c2nnc(Nc3cccc(Cl)c3)c3ccccc23)cc1S(=O)(=O)N1CCOCC1`, the survival was inactive: 104%.
Turning to `COc1ccccc1NC(=O)Cn1c(=O)n(Cc2ccccc2)c(=O)c2sc3ccccc3c21`, the survival was inactive: 87%.
Next, `Cc1cc(C)c(NC(=O)CSc2nc3ccccc3nc2N2CCCCC2)c(C)c1`: inactive: 38%; `CC1CCN(C(=O)Cn2cc(SCC(=O)NCc3ccccc3Cl)c3ccccc32)CC1`: inactive: 85%.
Turning to `CCC(C(=O)Nc1cccc(Cl)c1C)n1nc(-c2ccc(C)cc2)ccc1=O` (stereo not drawn), the survival was inactive: 86%.
Consider `CC(C)COc1cccc(C(=O)Nc2ccc(-c3nc4ncccc4o3)cc2)c1`, for which the survival was inactive: 91%.
For the compound `CCCc1nc2sc3c(N4CCC(C)CC4)ncnc3c2c2c1CCCC2`, the survival is inactive: 75%.
For the compound `Nc1nc(C2CC(=O)OC23CCCCC3)cs1` (stereo not drawn), the survival was inactive: 101%.
As to `O=C(NCc1cccc(Cl)c1)c1cc2ccc3cccnc3c2[nH]1`, the survival was inactive: 82%.
`CC(C)COc1ccc(C(=O)Nc2ccc(S(=O)(=O)Nc3ncccn3)cc2)cc1`: the survival was inactive: 86%.
Regarding `Oc1ccc(Oc2ncc(Cl)cc2Cl)cc1`, the survival is inactive: 118%.
Consider `Cc1ccc(Cl)cc1NC(=O)C(C)n1nnc2sc3c(c2c1=O)CCCC3` (stereo not drawn), for which the survival is inactive: 80%.
For the compound `Cc1cccc(N2CCN(S(=O)(=O)c3ccc4c(c3)CCCN4C(=O)C3CCC3)CC2C)c1` (stereo not drawn), the survival was inactive: 73%.
Turning to `CCOc1ccc(NC(=O)CN2C(=O)C(c3ccccc3)=NC23CCC(C)CC3)cc1` (stereo not drawn), the survival was inactive: 83%.
Turning to `COc1cc2c(=O)c(S(=O)(=O)c3ccc(F)cc3)cn(Cc3ccc(Cl)cc3)c2cc1OC`, the survival is inactive: 81%.
As to `CCOC(=O)c1ccc(CN(Cc2ccc(F)cc2)S(=O)(=O)c2cc(C(=O)Nc3cccc(C(F)(F)F)c3)ccc2F)cc1`, the survival is inactive: 93%.
With `CCCN1C(C(=O)c2ccccc2)=C(OC(=O)COc2ccccc2)c2ccccc2S1(=O)=O`, the survival is inactive: 72%.
Turning to `O=C(NC1CCCCCC1)c1ccc2c(c1)sc1nc(-c3ccc(F)cc3)cn12`, the survival was inactive: 114%.
For `COc1ccc(Cn2c(=O)[nH]c3cc(C(=O)N4CCN(c5cccc(Cl)c5)CC4)ccc3c2=O)cc1` the value was inactive: 63%; for `Cn1c(=O)n(-c2ccc(Br)cc2F)c(=O)c2sc3ccccc3c21`, inactive: 94%.
As for `Cc1cc(NC(=O)CN2CCCCC2)no1`, the survival was inactive: 100%.
Next, `CC(=O)c1ccc(NC(=O)c2noc3c2CCc2ccccc2-3)cc1`: inactive: 88%.
As for `N#CC1=C(N)OC2=C(C(=O)CCC2)C1c1c(F)cccc1Cl` (stereo not drawn), the survival was inactive: 113%.
As for `O=C(Nc1ccc(C(=O)OCc2cc(=O)n3c4c(sc3n2)CCCC4)cc1)c1ccccc1`, the survival is inactive: 19%.
Take `COc1ccc(C2C(C(N)=O)=C(C)Nc3nc(CCCO)nn32)c(OC)c1` (stereo not drawn): the survival was inactive: 62%.
On to `CCCS(=O)(=O)c1c(S(=O)(=O)CCC)c2cc(CC)ccn2c1C(=O)c1ccc(OC)cc1`, for which the survival was inactive: 93%.
